# The other results are listed elsewhere or left out. At the low end of the ranking the order means little. Measured with an extract: partners may take part in the binding.
# Target: T1, HNF4alpha2 (COS-7 nuclear extract) (UniProt P41235)
# T1 sequence: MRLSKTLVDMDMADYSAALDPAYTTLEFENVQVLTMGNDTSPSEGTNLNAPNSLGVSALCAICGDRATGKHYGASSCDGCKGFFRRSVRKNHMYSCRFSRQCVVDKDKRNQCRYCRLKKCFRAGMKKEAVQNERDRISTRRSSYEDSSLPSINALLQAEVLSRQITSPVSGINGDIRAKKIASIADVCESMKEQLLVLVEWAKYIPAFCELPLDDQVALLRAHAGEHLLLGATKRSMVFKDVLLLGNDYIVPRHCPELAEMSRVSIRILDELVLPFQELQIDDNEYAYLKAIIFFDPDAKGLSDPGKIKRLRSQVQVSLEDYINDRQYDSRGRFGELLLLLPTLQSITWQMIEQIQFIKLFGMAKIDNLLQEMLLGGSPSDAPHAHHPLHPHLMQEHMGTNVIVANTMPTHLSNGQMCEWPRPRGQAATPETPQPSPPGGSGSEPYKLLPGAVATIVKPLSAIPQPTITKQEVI
# Test: protein-binding microarray
# Conditions: COS-7 nuclear extract on double-stranded Agilent 4x180k PBM; binding buffer, salt, pH and temperature not given; high values mean tight binding; double strand, one strand shown; sequences stand for … in …GCCTAGGGAGATTAGAGTATCGGTCGA
row,Sequence,binding signal (log2 normalized intensity)
1,GACCCCATACTTCAGCAATTTCTTAGTAAA,1.07
2,GAGTACACACTGTAAAATTTCATGGCATTG,-0.815
3,TTCAAAGGAGGAGGCCTAGGCAGTCCACAG,-1.16
4,GGGTCACGTGGGGCCGGTACAAAAGGCCAA,1.47
5,GAAAAAGGTAAGGAGATAAGGTGATAAGGG,-1.12
6,TGCCCTATGTCCTCCAGCTCTTGGGGAACA,0.0325
7,AAAAGGGAGTTTTCTGCTCTCAACTAGAGA,-1.1
8,CTGCTCCCCGCCTTGGCCTCCCGGAGAGGC,1.87
9,GTCCAGTGACGGGTACAAGGAGGCCCCAAC,-0.646
10,AACAGTGAATGTTTCGTAATATTTAGGTGT,1.49
11,GGGACAAAGTTCATCTGGGCTTTAGGTTTG,2.48
12,CAAAGTGTGATTAACAAGCATTTTGTTCCC,1.17
13,GTCTTCTGTTTGCAAATGGATGAATTTTAT,1.36
14,CTGTAGAAAGACTAAAGTTCAGGAGGGAGG,-0.867
15,TTTGTCCCAAGGAGAATTTCACAAAGGGCA,0.859
16,GAATCCCAGTTCTGATACACTCGCCGTGTG,-0.806
17,AGTTTTTCTTGCTCTTTACCCCTGCAAGGA,2.02
18,GTCAGGCTGCTCAGCTGCCTAGAGGCCTGG,-1.15
19,AAAGGGAATAACCTTTGAGCTGAGTTCCAC,3.52
20,TGGGCTGGACTAAGAGTAGCGGTTTCTGCT,-1.08
21,AGTTGCCTGATGACAACTGAATGTGACCTT,4.35
22,TGGACAACTGTACTTTGGACTGGGGACCTG,5.1
23,AGTTGCTCAGTGTTCCACAGCAAGTAAATT,-1.11
24,CTTCTCCCTCTTATCAGCTGCTAAGTCTTT,0.722
25,GAATGAGGGAGGCAGCCACCTAGGCCGGTC,-1.12

row,Sequence,binding signal (log2 normalized intensity)
1,GTATGTGGACTTTCAACTGCAGGGGGGTGG,2.58
2,AATGCTGCAATTCTCTTTGCCAAAGCATAG,-0.944
3,CAAATAAACCTTTGACCAATTGACCCTATC,3.78
4,CTTATCTGGTGTGCTTTCTGTCCTCTCAAA,0.945
5,CTTTATCTAAGTAAACTAGTGATGTGGAAA,0.899
6,AAAACAGCAGAGCACGATGAATAGGGACGT,-1.13
7,GGATCGGAACCCCACCCCCACGCCCCCCAG,7
8,ACCTGGAGCCCTTAGGGTCAATGGGACATT,2.32
9,GCACCAGAGATAATATGCTTACTTAACTCC,-1.06
10,TGCTCATTGACCCTTAGGCCAAGGCTTACT,1.8
11,TTTGTCTGTGTAGACTCATCTGGTGTCATT,1.62
12,GTTGCACCTCTTATCAAGCGTGCACCCCAG,2.1
13,TGAGTGTTTGACCTTTCACCCAGAAAAGGC,5.02
14,TTGTGTAAGTGTGGGTTTAAGTAAGCCCCC,3.86
15,TGGTTTGCCTCTCTTAGGTGACAGCCTTTT,0.682
16,TCCCTCCCAGTACAAAGTTCACTTTCTTGT,4.74
17,AGTTTACTTCATCTAAGTGGGTCTAGGTTC,1.67
18,AGCGGCCATTTACTGACTAAAGGTTAAACA,2.13
19,TGCCTTTGATGTTTCAGCCCTAAAGACCAC,0.422
20,CTCAGATCACAAAAGATGGAACAAGCCAGG,-1.04
21,TATCCCTGGAGCCTTAGAAGATGACCTTTT,5.59
22,AGATCATCCTGCAGTTCCTGATCTTTGACC,7.04
23,TCCTTGACCCTGAAAACAGGGCAAGGAACG,-0.602
24,GGATTGATAGACTTATCTCAGCCTGGCTAA,-1.13
25,CAAAGTACAGTAATTTCACTGATATGGTGA,1.21

row,Sequence,binding signal (log2 normalized intensity)
1,CAAGGACTCTAAAGGGAATAACCTTTGAGC,5.82
2,TATGACAACAAAGCATTATCTACACAGTAA,-1.13
3,TCTTTCTCCCAGAGGTCGATCTGATCTTAA,1.5
4,AATGGAGGAGTTCAGCAGCATCTAAACTCT,-1.14
5,ATGTGCCAGACACTGCTCTAGGCATTGGAG,-1.13
6,GCTTGGGAGCAGTCCTTGGGGAAGGGGTAC,-0.198
7,AGTTCCCATTTGCGCTGGTTTTATGGTGTC,1.91
8,CAAGGACTTTGAAGGCCCCAATTGCCAAGG,-1.04
9,AGAATAAGGGTTCATCTGACTGGAAGAGCC,-0.861
10,CTGGCCTTTCATGCCGGCGTGACCCCCACT,5.52
11,GGACTTTGAACCTTGGGTCTGTAATCTCAC,7.11
12,ACCCCACTTTGGTTCACCGCTCACTGCTCC,-0.714
13,AGCCTGGGCCCCAGGGGACGTGGAATAGAT,-0.324
14,GGGACCGGCCTTTCCCGGCTGCCTAAGCAC,-1.17
15,TACTCTAGAACACTTTCCACTCTCTACTGA,-1.1
16,CCTGGGATCGAAAGGACATTGTCCATCACC,0.329
17,TCTTTTGAGCTGTGGTTAAGACTCAAAGTT,1.15
18,GTAAGTGTTAATGGCACTTCGTTTCAAAGT,1.06
19,TCCGCTTGCCTGAGGGTCATGACTAAAGCA,0.312
20,AAAGCAGCCAACCAGAGGCTGAAGTGAAGT,-0.671
21,GCAGTTTAGAGAAAGGGTCAAAGGTTAAGC,8.4
22,CAGCCGGAGAGGCAAGTATGGTAAGGTCGA,0.972
23,TTCCCTTGTTTACCTTGGTGTTTCTTTGAT,1.68
24,TTACCTCTGCTCCCCCTGCCCTTCGTCCTG,3.93
25,TGCAATAGAGCCACATTCTGAGACTAAAGA,-1.04

row,Sequence,binding signal (log2 normalized intensity)
1,CCAAAGAAAAAAGCCAATCTCTCAAATCTA,-1.14
2,CTGCTCCCCTGGCCTCACCCTTGTCCCTGA,2.83
3,GGACATTCTATGGAATACAGCAGGGTAGAA,0.324
4,AATCTAGGATAACTCTAGTGATCTTATCAG,-0.736
5,TAAGCTATGTGGTGGAATGGAAAGAATATG,0.569
6,CAGTGCAGCGGGGTCAGAGAAACCTGGCTG,-1.12
7,GGAGACTTCCAGGGAATAAAGAACTCTAAG,-1.04
8,GTTGGGCAGAAGGTGTTTCAGATGGACCAA,1.81
9,GTCCCAGCCTAGGCCTTTGTGTAAACTCCT,-0.407
10,ATCTGGGACAAGGGGGAGGAGAGTACTGTC,-1.2
11,AGTGCCATGTAATCAAACTGAACTTTGAAA,3.76
12,AGAGCAGGACTGATATCCTGGGCTTTTAAT,-1.09
13,AATTTAGCAAGACTGCAAAATAGACAAACA,-1.18
14,CTTGATAACAAAAATATCACAATCCTTAAG,-1.03
15,TGCCCAGGGATTCCTGAAGATCGCAGACTT,-0.953
16,TCTCTTATCACCCTGAACAGTGGCTGGCCA,0.971
17,TGAATACACATAATGTGCTTATCAGCAAGG,0.718
18,ATGCTGGTGTGTGATAAAACCCATGGACCT,2.18
19,GCGAATATGTCAGGCTCAGGGACCCAGCGG,-1.09
20,TTGCTGTGCACTTCTCTTTGAGTCCCAATC,0.809
21,CTGACTCAGACTGAGGATGGGCCAAGGTTC,1.98
22,AATAATACTGACTGAGAAACCAAGATCCTA,-1.31
23,AGTTGTCATTTGGGGCGGGCGGTCGGAGTC,1.09
24,TAAATGGACAGACACACCCTTCAGAGCTTG,-1.16
25,CAGGGAACACACCATGTACAGAGAGCATTC,-1.18

row,Sequence,binding signal (log2 normalized intensity)
1,TTCCTTCCAAAGGTCACAGTAGGGAAAGTG,3.4
2,ATGCATGCTGTGTGTGTGTGTGTGTGTGTG,3.31
3,CCTGGCCTCTGAGGTGTTAACCTGATGCTG,-0.881
4,ACCCCTTCTTGACCTGCGTAGCCCAAAGGT,0.756
5,AAGGTTGGTTTTTGGAGACAGGAGTAGTCA,1.3
6,GGATATCCTGGCAGTGTGGAAAAGCTGGCT,-0.934
7,GCTGAAAGTACTGGCCAGATGAGGTCAGCA,1.89
8,TCTGCAACACTTTCTAAGGACACAACAGAA,-0.92
9,GTGATGACCCCATACTTCAGCAATTTCTTA,1.12
10,AAAAAAAAAAATACTCCTATCACCGAGGGA,-1.09
11,CTCTCTCGTTTTTTTTTTCCCTGAGTCTGT,2.52
12,TCTCAGGTGAGCAGAGGGAGGACAAAGTTC,3.6
13,CAAACAGAACTGTTAACTTTGTACTCAATT,1.89
14,CCTATATAGTTGAGATTGTAACCGTAAATG,1.55
15,GCAAGACTCGTGAAAAGAGTGATCTTTGGG,1.09
16,TGTCCTTTGTCCTGTACCTGGGAAGATAAG,1.68
17,TGCACTTATCTTAATACTTTGGAACTCAGT,1.85
18,AGGTCACACTGATACAGCATGGCCCAGGGA,-1.05
19,TCTGATTAGAGGCTCAGGTAAAGGCATGCT,-1.12
20,TACATTCTTAGAAGATAAAGTGTCTCCCTC,0.941
21,CCTCCTCCTGGGGGCTTTTGTTTAGGAAGA,-0.247
22,GGTAAACACTGAGCTTTCATCTAAGATCCT,-1.19
23,GTCCAGTGGTGTCTTACCGGGATTTTGTTG,1.64
24,GGTGTGCCTCCTCCATCTCCTCCACCAGCT,-1.04
25,CCTGCACACCTGCCTTTGATCAGGGACCTT,1.4

row,Sequence,binding signal (log2 normalized intensity)
1,GTCTATCTTAGCCATGTTCTCTAGAAACAG,-0.621
2,TCAGGTCCACCAAGGTGGTGAAGATGTCCT,0.988
3,TTTTTGTGCCTCTTTGGTGAATTTTATGTC,1.78
4,TCCAGGGATGTCTTTTTCTGACCCATGGGT,2.32
5,AGAAGACTTTGGGGGTAGGTGGAGTGAGGG,-0.8
6,CGAAAAAGGAAATATCTTCCCATAAAACCT,-1.12
7,CAAAGGTCATTGGTATTGATAGCGCTTACT,2.77
8,CCAGCAAAGAGGGTCAAAGCCCAGGAGAGC,-1.06
9,AAGAGGAATGCTTTGAGCCAGAATCTGTCA,-1.05
10,TAAGGAAGGAAGGTGCTTATCAGAGCAAGA,-1.13
11,CTGAGCCTCAGAACCATTTGTGAGGATGGG,-0.528
12,CTTTCATGAATAAATGACATAGTGACATTT,1.65
13,TGAACAGAATAGAGGCCTTTGTGCTGACTA,-0.751
14,TTAAAAAAAAAAAAAACTATCAAACTAGTG,-1.27
15,CAGAGCCGCACCCAGCTTTCATCTCGGCTG,-1.12
16,TAAGTTTAAGTCCAGAAAAGACCAAAAAGG,0.39
17,ATTGTCAATACCCTGTTATTAGTCCAAGAG,1.46
18,CGTCCGTCACCCCTTTCTTTGATTAGGAAA,1.54
19,TCTTTCTATATTTGTAGGCAGCTAGGCAGG,1.58
20,CTAAGTGGCTCGACAACGATTTGGGAAATG,-0.828

# From paper PMC10726135
